Laboratory results as given in the supplement of paper PMC8728848.
Some of the results follow.

Key:
Assay in all cases: glycan array binding signal (z-score within array); higher = stronger binding
Settings in all cases: glycan notation: IUPAC condensed, linker removed
[1] = biological target: Man(a1-2)Man(a1-2)Man(a1-6)[Man(a1-3)]Man
How it was run: (§1)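 Arrays were curated from the Consortium for Functional Glycomics database, 3228 in total, and kept only where the protein sequence was available. Binding is expressed as a within-array Z-score. This score was averaged across arrays of the same protein sequence at different concentrations or buffers and across linkers, and negative values can be read as non-binding.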

Man(a1-2)Man(a1-3)Man = biological target: Man(a1-2)Man(a1-3)Man
How it was run: as §1

[2] = biological target: Man(a1-2)Man(a1-3)[Man(a1-2)Man(a1-6)]Man
How it was run: as §1

[3] = biological target: Man(a1-2)Man(a1-3)[Man(a1-2)Man(a1-6)]Man(a1-6)[Man(a1-2)Man(a1-2)Man(a1-3)]Man(b1-4)GlcNAc(b1-4)GlcNAc
How it was run: as §1

[4] = biological target: Man(a1-2)Man(a1-3)[Man(a1-6)]Man(a1-6)[Man(a1-2)Man(a1-3)]Man(b1-4)GlcNAc(b1-4)GlcNAc
How it was run: as §1

[5] = biological target: Man(a1-2)Man(a1-6)[Man(a1-3)]Man(a1-6)[Man(a1-2)Man(a1-2)Man(a1-3)]Man(b1-4)GlcNAc(b1-4)GlcNAc
How it was run: as §1

Man(a1-3)[Man(a1-6)]Man = biological target: Man(a1-3)[Man(a1-6)]Man
How it was run: as §1

[6] = biological target: Man(a1-3)[Man(a1-6)]Man(a1-6)[Man(a1-2)Man(a1-3)]Man(b1-4)GlcNAc(b1-4)GlcNAc
How it was run: as §1

[7] = biological target: Man(a1-3)[Man(a1-6)]Man(a1-6)[Man(a1-3)]Man(b1-4)GlcNAc(b1-4)GlcNAc
How it was run: as §1

[8] = biological target: Man(a1-3)[Man(a1-6)]Man(b1-4)GlcNAc(b1-4)GlcNAc
How it was run: as §1

Man(b1-4)GlcNAc = biological target: Man(b1-4)GlcNAc
How it was run: as §1

Neu5Ac(a2-3)Gal = biological target: Neu5Ac(a2-3)Gal
How it was run: as §1

[9] = biological target: Neu5Ac(a2-3)Gal(b1-3)GalNAc
How it was run: as §1

[10] = biological target: Neu5Ac(a2-3)Gal(b1-3)GalNAc(b1-3)Gal(a1-4)Gal(b1-4)Glc
How it was run: as §1

[11] = biological target: Neu5Ac(a2-3)Gal(b1-3)GalNAc(b1-3)Gal(b1-4)GlcNAc
How it was run: as §1

[12] = biological target: Neu5Ac(a2-3)Gal(b1-3)GalNAc(b1-4)[Neu5Ac(a2-3)]Gal(b1-4)Glc
How it was run: as §1

[13] = biological target: Neu5Ac(a2-3)Gal(b1-3)GalNAc6S
How it was run: as §1

[14] = biological target: Neu5Ac(a2-3)Gal(b1-3)GlcNAc
How it was run: as §1

[15] = biological target: Neu5Ac(a2-3)Gal(b1-3)GlcNAc(b1-3)Gal(b1-3)GlcNAc
How it was run: as §1

[16] = biological target: Neu5Ac(a2-3)Gal(b1-3)GlcNAc6S
How it was run: as §1

[17] = biological target: Neu5Ac(a2-3)Gal(b1-3)[Fuc(a1-4)]GlcNAc
How it was run: as §1

[18] = biological target: Neu5Ac(a2-3)Gal(b1-3)[Fuc(a1-4)]GlcNAc(b1-3)Gal(b1-4)[Fuc(a1-3)]GlcNAc
How it was run: as §1

[19] = biological target: Neu5Ac(a2-3)Gal(b1-3)[Neu5Ac(a2-3)Gal(b1-4)]GlcNAc
How it was run: as §1

[20] = biological target: Neu5Ac(a2-3)Gal(b1-3)[Neu5Ac(a2-6)]GalNAc
How it was run: as §1

Neu5Ac(a2-3)Gal(b1-4)Glc = biological target: Neu5Ac(a2-3)Gal(b1-4)Glc
How it was run: as §1

[21] = biological target: Neu5Ac(a2-3)Gal(b1-4)GlcNAc
How it was run: as §1

[22] = biological target: Neu5Ac(a2-3)Gal(b1-4)GlcNAc(b1-2)Man(a1-3)[Neu5Ac(a2-3)Gal(b1-4)GlcNAc(b1-2)Man(a1-6)]Man(b1-4)GlcNAc(b1-4)GlcNAc
How it was run: as §1

[23] = biological target: Neu5Ac(a2-3)Gal(b1-4)GlcNAc(b1-3)Gal(b1-3)GlcNAc
How it was run: as §1

[24] = biological target: Neu5Ac(a2-3)Gal(b1-4)GlcNAc(b1-3)Gal(b1-4)GlcNAc
How it was run: as §1

[25] = biological target: Neu5Ac(a2-3)Gal(b1-4)GlcNAc(b1-3)Gal(b1-4)GlcNAc(b1-3)Gal(b1-4)GlcNAc
How it was run: as §1

[26] = biological target: Neu5Ac(a2-3)Gal(b1-4)GlcNAc(b1-3)Gal(b1-4)[Fuc(a1-3)]GlcNAc
How it was run: as §1

[27] = biological target: Neu5Ac(a2-3)Gal(b1-4)GlcNAc(b1-6)[Gal(b1-3)]GalNAc
How it was run: as §1

[28] = biological target: Neu5Ac(a2-3)Gal(b1-4)GlcNAc6S
How it was run: as §1

[29] = biological target: Neu5Ac(a2-3)Gal(b1-4)[Fuc(a1-3)]GlcNAc
How it was run: as §1

[30] = biological target: Neu5Ac(a2-3)Gal(b1-4)[Fuc(a1-3)]GlcNAc(b1-3)Gal
How it was run: as §1

[31] = biological target: Neu5Ac(a2-3)Gal(b1-4)[Fuc(a1-3)]GlcNAc(b1-3)Gal(b1-4)GlcNAc
How it was run: as §1

[32] = biological target: Neu5Ac(a2-3)Gal(b1-4)[Fuc(a1-3)]GlcNAc(b1-3)Gal(b1-4)[Fuc(a1-3)]GlcNAc(b1-3)Gal(b1-4)[Fuc(a1-3)]GlcNAc
How it was run: as §1

[33] = biological target: Neu5Ac(a2-3)Gal(b1-4)[Fuc(a1-3)]GlcNAc6S
How it was run: as §1

B1: Mindin (Homo sapiens), Q9BUD6 (protein)
chain: MENPSPAAALGKALCALLLATLGAAGQPLGGESICSARALAKYSITFTGKWSQTAFPKQYPLFRPPAQWSSLLGAAHSSDYSMWRKNQYVSNGLRDFAERGEAWALMKEIEAAGEALQSVHEVFSAPAVPSGTGQTSAELEVQRRHSLVSFVVRIVPSPDWFVGVDSLDLCDGDRWREQAALDLYPYDAGTDSGFTFSSPNFATIPQDTVTEITSSSPSHPANSFYYPRLKALPPIARVTLVRLRQSPRAFIPPAPVLPSRDNEIVDSASVPETPLDCEVSLWSSWGLCGGHCGRLGTKSRTRYVRVQPANNGSPCPELEEEAECVPDNCV
glycan array binding signal (z-score) [1]: -0.306 | glycan array binding signal (z-score) (Man(a1-2)Man(a1-3)Man): -0.303 | glycan array binding signal (z-score) [2]: -0.292 | glycan array binding signal (z-score) [3]: -0.278 | glycan array binding signal (z-score) [4]: -0.225 | glycan array binding signal (z-score) [5]: -0.299 | glycan array binding signal (z-score) (Man(a1-3)[Man(a1-6)]Man): -0.263 | glycan array binding signal (z-score) [6]: -0.066 | glycan array binding signal (z-score) [7]: -0.319 | glycan array binding signal (z-score) [8]: -0.201 | glycan array binding signal (z-score) (Man(b1-4)GlcNAc): -0.32 | glycan array binding signal (z-score) (Neu5Ac(a2-3)Gal): -0.347 | glycan array binding signal (z-score) [9]: -0.265 | glycan array binding signal (z-score) [10]: -0.246 | glycan array binding signal (z-score) [11]: -0.364 | glycan array binding signal (z-score) [12]: -0.327 | glycan array binding signal (z-score) [13]: -0.268 | glycan array binding signal (z-score) [14]: -0.335 | glycan array binding signal (z-score) [15]: -0.35 | glycan array binding signal (z-score) [16]: -0.233 | glycan array binding signal (z-score) [17]: -0.359 | glycan array binding signal (z-score) [18]: 0.188 | glycan array binding signal (z-score) [19]: -0.29 | glycan array binding signal (z-score) [20]: -0.339 | glycan array binding signal (z-score) (Neu5Ac(a2-3)Gal(b1-4)Glc): -0.304 | glycan array binding signal (z-score) [21]: -0.349 | glycan array binding signal (z-score) [22]: 0.07 | glycan array binding signal (z-score) [23]: -0.193 | glycan array binding signal (z-score) [24]: -0.323 | glycan array binding signal (z-score) [25]: -0.321 | glycan array binding signal (z-score) [26]: -0.24 | glycan array binding signal (z-score) [27]: -0.36 | glycan array binding signal (z-score) [28]: -0.298 | glycan array binding signal (z-score) [29]: -0.257 | glycan array binding signal (z-score) [30]: -0.315 | glycan array binding signal (z-score) [31]: -0.211 | glycan array binding signal (z-score) [32]: -0.314 | glycan array binding signal (z-score) [33]: -0.3
